In all, about 33,000 sequences were measured (“E-score (-0.5 to 0.5)”: median about -0.043, highest 2% from about 0.37 on). The list shows a part of the results.
Molecular target: T1, Upc2 (UniProt Q12151)
T1 sequence: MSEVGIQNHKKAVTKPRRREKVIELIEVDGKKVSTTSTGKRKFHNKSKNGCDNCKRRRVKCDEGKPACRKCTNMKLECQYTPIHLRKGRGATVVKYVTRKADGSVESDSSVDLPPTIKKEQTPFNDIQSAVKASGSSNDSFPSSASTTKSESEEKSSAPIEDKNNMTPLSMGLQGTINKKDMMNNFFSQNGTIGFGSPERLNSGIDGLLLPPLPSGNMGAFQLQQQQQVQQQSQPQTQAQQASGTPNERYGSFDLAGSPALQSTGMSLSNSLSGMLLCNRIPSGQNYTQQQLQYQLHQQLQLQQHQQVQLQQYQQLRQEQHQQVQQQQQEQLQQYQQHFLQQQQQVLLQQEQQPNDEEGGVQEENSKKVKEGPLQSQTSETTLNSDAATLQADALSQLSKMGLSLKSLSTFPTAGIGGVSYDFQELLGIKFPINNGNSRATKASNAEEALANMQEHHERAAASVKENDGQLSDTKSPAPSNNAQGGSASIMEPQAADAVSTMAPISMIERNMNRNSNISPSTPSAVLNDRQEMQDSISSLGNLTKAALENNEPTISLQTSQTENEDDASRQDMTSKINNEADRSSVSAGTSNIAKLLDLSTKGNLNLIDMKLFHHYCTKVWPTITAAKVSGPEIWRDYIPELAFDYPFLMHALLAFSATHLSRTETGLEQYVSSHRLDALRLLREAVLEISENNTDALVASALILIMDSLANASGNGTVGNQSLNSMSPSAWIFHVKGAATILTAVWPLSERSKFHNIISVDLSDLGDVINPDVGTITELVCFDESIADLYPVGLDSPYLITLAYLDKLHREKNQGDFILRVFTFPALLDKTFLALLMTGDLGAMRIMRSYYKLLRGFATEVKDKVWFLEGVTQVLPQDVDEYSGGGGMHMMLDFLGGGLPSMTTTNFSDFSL
Assay: PBM E-score (8-mer binding enrichment) (E-score (-0.5 to 0.5)); higher = stronger / more preferred TF binding; most listed sequences are background and not binding sites
Conditions: protein concentration: 200 nM; construct: GST-full length
Procedure, shortened: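 Masliner-normalised scans of fluorescent anti-GST signal were the basis for scoring. That signal came from GST-tagged yeast transcription factors applied at about 100-200 nM to double-stranded universal all-10-mer Agilent arrays on fresh or once-stripped slides. Each ungapped eight-base word, pooled with its reverse complement, received an E-score from the Universal PBM Analysis Suite.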

| Sequence | PBM E-score |
| --- | --- |
| CACAAGCA | -0.115 |
| GGGCAACA | -0.101 |
| GATGATAA | -0.0285 |
| ATTCAAGG | -0.175 |
| AACTGAGA | -0.219 |
| CCCAATCG | -0.114 |
| ACCAGCGT | -0.0198 |
| ACCAATCC | -0.23 |
| AAACTGGT | 0.0535 |
| CCTTGAAC | 0.0625 |
| GACACTGA | -0.132 |
| GAGTGTAC | 0.256 |
| GTAGCACA | -0.0827 |
| CTCAAATA | 0.00825 |
| GGTAAGAC | 0.027 |
| ACAAGGCC | -0.102 |
| AGCTGGAT | 0.00812 |
| CTTATACA | 0.153 |
| CTGATTTA | -0.0524 |
| AACCGGAT | -0.0672 |
| ATGTTCCG | -0.113 |
| GATCATCC | -0.00145 |

| Sequence | PBM E-score |
| --- | --- |
| ACAATTAG | -0.114 |
| CCCGCACC | 0.00424 |
| AGAGACAT | -0.123 |
| AGTGACGA | 0.0296 |
| AGAGTTTA | 0.124 |
| CACGTCCG | -0.226 |
| GGGGTTAA | -0.198 |
| CGGACGGA | -0.112 |
| AAAAGCGT | -0.0219 |
| AAGCTATC | -0.0101 |
| ATGTACGA | 0.472 |
| CAGGAACG | 0.396 |
| GTAATTCA | 0.0185 |
| GCCATGAC | -0.0401 |
| CGACAGGC | -0.03 |
| ACGGGTAG | -0.0318 |
| ACCTCCAG | -0.152 |
| GTAACCGA | 0.322 |
| ATGAAGTG | -0.0493 |
| CTGAGAGA | -0.257 |
| ATCAGTGC | -0.0682 |
| GGTGCGTA | 0.187 |

| Sequence | PBM E-score |
| --- | --- |
| AAAATTTG | 0.0466 |
| GGAGCACA | -0.0794 |
| AGCGCTCC | -0.0733 |
| ATGGTGTA | 0.104 |
| CCACAGCA | 0.0289 |
| CATCTTGC | -0.0552 |
| ACCGCAAT | 0.204 |
| AACACGCG | 0.126 |
| AGCGTAAA | 0.271 |
| CAAAAATC | -0.0894 |
| ATGCTAAA | -0.112 |
| ATTTGCCA | -0.251 |
| AGATAACT | -0.0531 |
| GCGGATCA | -0.243 |
| TCTCACCA | -0.14 |
| CATATGCC | 0.0153 |
| GAAGGTCC | 0.0645 |
| GGTCAATA | -0.0257 |
| ATGGTTCG | 0.187 |
| CGATGGGA | 0.125 |
| CCAGGGAA | -0.162 |
| GTGTCACA | -0.117 |

| Sequence | PBM E-score |
| --- | --- |
| TGGGTTAA | -0.125 |
| ACGTTACC | 0.0243 |
| ACACCTGG | -0.225 |
| CGTTGATA | -0.00786 |
| GGGCCAAA | 0.0302 |
| GTTCCAGA | 0.172 |
| ATTCAATC | 0.126 |
| GCAGCAGC | -0.0534 |
| ACGTACAG | 0.3 |
| ACGACGCG | 0.389 |
| CACTGTGG | -0.198 |
| GCACATCA | -0.0856 |
| TAGACTAA | -0.17 |
| AGGAGATG | -0.152 |
| AGTTCTAA | -0.0515 |
| ACCACGCA | -0.214 |
| CATACGCC | 0.307 |
| AGTGACTC | -0.152 |
| GAGTTGGC | 0.00118 |
| CCGGAAGA | -0.126 |
